Source: PubChem BioAssay AID686979 (National Center for Advancing Translational Sciences (NCATS), 2013)
The whole screen tested about 420,000 compounds, of which about 50,000 (12%) were called active. This list was built around the results that the source calls inconclusive (neither active nor inactive); the mix of calls is not that of the screen. Calls follow the shape of the dose curve; as a rule, active = well fitted inhibition curve with a large enough effect; inconclusive = small, poorly fitted or top-dose-only effect; inactive = flat fitted curve, though single readings scatter. No potency is given beside an inconclusive call; the fits are too rough.

Assay: qHTS for Inhibitors of human tyrosyl-DNA phosphodiesterase 1 (TDP1): qHTS in cells in presence of CPT; also: nearly all actives have a fitted effect of over 55% in size
Conditions: chicken DT40 Tdp1-/-;hTDP1 cells + 20 nM CPT, ATP luminescence, 48 h; activity change, negative = growth inhibition: at 46.2 µM (top of the series) unless noted
Procedure, shortened: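 Cell growth measured by CellTiter-Glo luminescence after a minimum 48 h, 37 C compound exposure with 20 nM CPT in Tdp1-knockout DT40 cells stably expressing hTDP1, seeded 400/well; qHTS titration format.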
% is scaled to controls: 0 for no effect and ±100 for the full control effect; potency is read from the fitted curve at half-maximal effect; tags tell the direction and shape of the fitted curve.

Question: Which Potency does the source give for `COCCSc1nnc(NC(=O)CS(=O)(=O)c2ccc(C)cc2)s1` here?
Answer: The Potency was “inactive”.

Question: For `CC(=O)c1c(C)[nH]c(C(=O)CSc2nc3ccccc3n2C)c1C`, which Potency is on record?
Answer: The Potency was active: 14.6 µM.

Question: With `O=c1oc2ccc(NS(=O)(=O)c3cccc4cccnc34)cc2s1` as the compound, how does the Potency read?
Answer: Its Potency is active: 20.6 µM.

Question: For `COc1ccccc1-c1cc(C(F)(F)F)nc(NCc2cccs2)n1`, which Potency is on record?
Answer: The Potency was inconclusive [inhibitor, single point].

Question: For `Cc1cc(C)cc(NC(=O)c2cc3c(=O)n(Cc4ccco4)ccc3nc2C)c1`, which Potency is on record?
Answer: Its Potency is inconclusive [inhibitor, single point].

Question: With `CC(=O)Nc1cccc(-c2csc(C(C)(O)c3cccc(F)c3)n2)c1` (configuration not stated) as the compound, how does the Potency read?
Answer: The Potency was active: 23.1 µM.

Question: With `Cc1cc(=O)oc2cc(OCc3ccc(S(=O)(=O)N4CCOCC4)cc3)ccc12` as the compound, how does the Potency read?
Answer: Its Potency is inconclusive [inhibitor, partial curve, poor fit].

Question: For `CC(=O)c1cccc(NC(=O)c2csc3c2CCCCC3)c1`, which Potency is on record?
Answer: The Potency was inconclusive [inhibitor, single point].

Question: Which Potency does the source give for `CCc1nnc(NC(=O)CSc2nc(-c3ccccc3)cc(-c3ccc(OC)cc3)c2C#N)s1` here?
Answer: The Potency was active: 23.1 µM.

Question: With `COc1cc(-c2nc(CN3CCN(CC(C)C)C(=O)[C@@H]3C)c(C)o2)ccc1F` as the compound, how does the Potency read?
Answer: Its Potency is inconclusive [inhibitor, partial curve].

Question: For `O=C(O)c1ccccc1NC(=O)c1ccccc1-c1ccccc1C(=O)O`, which Potency is on record?
Answer: The Potency was inconclusive [inhibitor, full curve, poor fit].

Question: Which Potency does the source give for `CC(=O)Nc1cccc(C(=O)N2CCN(S(=O)(=O)c3ccc(C4CCCCC4)cc3)CC2)c1` here?
Answer: Its Potency is inconclusive [inhibitor, single point].

Question: For `O=S(=O)(NCC1CCCO1)c1ccc(S(=O)(=O)N(Cc2ccc(F)cc2)Cc2ccccn2)cc1` (configuration not stated), which Potency is on record?
Answer: The Potency was “inactive”.

Question: Which Potency does the source give for `Cc1nc2c(-c3ccc(F)cc3)c(C)nn2c(C)c1CCC(=O)NCc1cccc(Cl)c1` here?
Answer: Its Potency is inconclusive [inhibitor, partial curve].

Question: For `O=C(Nc1ccccc1)N1CCC2(CC1)CCN(C(=O)c1ccncc1)CC2`, which Potency is on record?
Answer: Its Potency is “inactive”.

Question: For `Cc1cccc(NC(=S)NCc2ccc3c(c2)cc(C)n3C)c1C`, which Potency is on record?
Answer: Its Potency is active: 11.6 µM.

Question: For `N#Cc1c(NC(=O)c2cccnc2)sc2c1CCC2`, which Potency is on record?
Answer: Its Potency is active: 23.1 µM.

Question: For `Cc1cc(OCC(=O)NCCCn2ccnc2)c2c(C)c(C)c(=O)oc2c1`, which Potency is on record?
Answer: The Potency was “inactive”.

Question: With `Cc1cc(-c2ccc(C)c(S(=O)(=O)NCCCN3CCN(c4ccccc4)CC3)c2)on1` as the compound, how does the Potency read?
Answer: Its Potency is inconclusive [inhibitor, single point].

Question: For `CCc1nnc(NC(=O)CSc2nc(C)cs2)s1`, which Potency is on record?
Answer: Its Potency is inconclusive [inhibitor, partial curve].

Question: For `CCC(Oc1ccc2c(=O)c(-c3ccccc3OC)coc2c1)C(=O)OCc1ccccc1` (configuration not stated), which Potency is on record?
Answer: The Potency was inconclusive [inhibitor, single point].

Question: With `CCOc1ccc(CNC23CN4CN(CN(C4)C2)C3)cc1` as the compound, how does the Potency read?
Answer: The Potency was inconclusive [inhibitor, partial curve].

Question: For `CNS(=O)(=O)c1cc2c3c(cccc3c1)C(=O)NC2=O`, which Potency is on record?
Answer: Its Potency is active: 18.4 µM.

Question: With `COC(=O)C1(Cc2cc(-c3cccnc3)no2)CCN(C(=O)OC(C)(C)C)CC1` as the compound, how does the Potency read?
Answer: Its Potency is inconclusive [inhibitor, partial curve, poor fit].

Question: Which activity change, negative = growth inhibition does the source give for `CCOc1ccc(-c2nnc3ccc(SC(C)C)nn23)cc1` here?
Answer: The activity change, negative = growth inhibition was inconclusive: -34.8% [inhibitor].

Question: For `O=C1CC(c2ccccc2)Oc2cc(O)ccc21` (configuration not stated), which Potency is on record?
Answer: The Potency was “inactive”.

Question: For `COc1ccccc1C(=O)Nc1ccc(NC(=O)c2ccco2)c(C)c1`, which Potency is on record?
Answer: Its Potency is inconclusive [inhibitor, single point].

Question: Which Potency does the source give for `O=C(c1ccccn1)N1N=C2/C(=C/c3ccccc3)CCCC2C1c1ccccc1` (configuration not stated) here?
Answer: Its Potency is inconclusive [inhibitor, single point].

Question: With `C#Cc1ccc(CN2CCC(Oc3ccc(C(=O)NCc4ccccn4)cc3)CC2)cc1` as the compound, how does the Potency read?
Answer: Its Potency is “inactive”.

Question: For `CCCCn1c(-c2cccs2)nc2nc3ccccc3nc21`, which Potency is on record?
Answer: The Potency was inconclusive [inhibitor, single point].

Question: With `COc1ccc(C(=O)Nc2ccc(N3CCN(c4ccc(OC)cc4)CC3)c(C#N)c2)cc1` as the compound, how does the Potency read?
Answer: The Potency was “inactive”.

Question: For `CC1CCc2nc(NC(=O)Cc3ccc(Cl)cc3)sc2C1` (configuration not stated), which Potency is on record?
Answer: The Potency was inconclusive [inhibitor, single point].

Question: With `COc1ccc(-c2nc(CN3CCCCC3c3cccnc3)c(C)o2)c(F)c1` (configuration not stated) as the compound, how does the Potency read?
Answer: The Potency was inconclusive [inhibitor, single point].

Question: With `Cc1ccc2sc(N(CCCN(C)C)C(=O)c3nc4ccccc4s3)nc2c1C` as the compound, how does the Potency read?
Answer: The Potency was active: 13 µM.

Question: With `Cc1ccc(-n2ncc3c(NNC(=O)c4ccco4)ncnc32)cc1C` as the compound, how does the Potency read?
Answer: Its Potency is inconclusive [inhibitor, partial curve, poor fit].

Question: For `CN(C)c1ccc(-c2nc(NCCc3cnc[nH]3)c3ccccc3n2)cc1`, which Potency is on record?
Answer: The Potency was active: 13 µM.

Question: Which Potency does the source give for `COc1cc(/C=C/C(=O)N(Cc2ccccc2)c2ccccn2)cc(OC)c1OC` here?
Answer: Its Potency is inconclusive [inhibitor, single point].

Question: Which Potency does the source give for `CC(C)C(=NO)c1ccccc1` here?
Answer: The Potency was “inactive”.

Question: For `Cc1nc(NC(=S)Nc2ccccc2)sc1C`, which Potency is on record?
Answer: Its Potency is inconclusive [inhibitor, single point].

Question: With `CCC(C)Sc1cccc(-c2nc3cc(C)ccn3c2NCc2ccccc2)c1` (configuration not stated) as the compound, how does the Potency read?
Answer: The Potency was active: 23.1 µM.

Question: With `Cc1cccc(NC(=O)CSc2c3c(nc4ccccc24)CCC3)n1` as the compound, how does the Potency read?
Answer: The Potency was inconclusive [inhibitor, single point].

Question: With `O=C1CC(c2ccccc2)=NN1c1ccccc1` as the compound, how does the Potency read?
Answer: The Potency was inconclusive [inhibitor, single point].

Question: With `COc1cc(NC(=O)C2CC(c3cccc(OC)c3OC)=NO2)cc(OC)c1OC` (configuration not stated) as the compound, how does the Potency read?
Answer: Its Potency is active: 14.1 µM.

Question: Which Potency does the source give for `CCOc1ccc(CCNC(=O)COC(=O)CSc2ccc(C)cc2)cc1OCC` here?
Answer: Its Potency is “inactive”.

Question: With `COCCC(=O)N1CCC(Oc2ccc(C(=O)N3CCCC(COC)C3)cc2)CC1` (configuration not stated) as the compound, how does the Potency read?
Answer: Its Potency is “inactive”.

Question: For `CCCCCC(=O)N1C[C@@H](n2cc(-c3ccc(F)cc3)nn2)[C@H](O)C[C@@H]1c1ccccc1`, which Potency is on record?
Answer: The Potency was inconclusive [inhibitor, single point].

Question: Which Potency does the source give for `COc1ccccc1NC(=O)C(=O)N/N=C(\C)CC(=O)Nc1ccccc1C(F)(F)F` here?
Answer: Its Potency is “inactive”.
